According to ChEMBL document CHEMBL1201862, “PubChem BioAssay data set” (2004):
Calls of active or inactive are those of the source. Cut-off read from the data, not from the text of the source: active = GI50 up to about 1.1 µM and inactive = higher.

How the values were obtained:
Experiment in all cases: cells
Assay type in all cases: functional
SN12K1 = settings: Homo sapiens
P388/ADR = settings: Mus musculus
P388 = settings: Mus musculus

## COc1c(O)cc2c(c1OC)-c1ccc(OC)c(=O)cc1[C@@H](NC(C)=O)CC2 [3-DESMETHYLCOLCHICIN]
SN12K1
  GI50: active: < 31.2 nM
P388/ADR
  GI50: inactive: 9530 nM
P388
  GI50: active: < 31.2 nM
